On the series, the source says: FIG. 9. Relationship between the rate constant (kcat) of TrzN with ametryn and the pH of the reaction buffer.
The active site cavity of TrzN (FIG. 5) is located at the centre of the catalytic domain of each subunit. Three conserved histidines of the amidohydrolase motif, located on strands one (H63, H65) and five (H238), in addition to a glutamine residue from strand two and the putative water/hydroxide nucleophile constitute the metal ligands. The active site Zn^2+ metal ion is coordinated in trigonal bipyramidal geometry, with H63, H65, and H238 comprising the equatorial ligands, and Q142 and the water molecule the axial ligands. […] The nucleophilic water is shown to be additionally hydrogen bonded to H274, which is a conserved residue of the amidohydrolase motif and is in turn hydrogen bonded to D300 to form a H-D catalytic dyad.

B1: TrzN Wildtype: Wild-type TrzN triazine hydrolase, SEQ ID NO:1; codon optimised open reading frame TrzNco, SEQ ID NO:2 (protein, listed as Arthrobacter aurescens)
chain: MILIRGLTRVITFDDQERELEDADILIDGPKIVAVGKDLSDRSVSRTIDGRGMIALPGLINSHQHLYEGAMRAIPQLERVTMASWLEGVLTRSAGWWRDGKFGPDVIREVARAVLLESLLGGITTVADQHLFFPGATADSYIDATIEAATDLGIRFHAARSSMTLGKSEGGFCDDLFVEPVDRVVQHCLGLIDQYHEPEPFGMVRIALGPCGVPYDKPELFEAFAQMAADYDVRLHTHFYEPLDAGMSDHLYGMTPWRFLEKHGWASDRVWLAHAVVPPREEIPEFADAGVAIAHLIAPDLRLGWGLAPIREYLDAGITVGFGTTGSASNDGGNLLGDLRLAALAHRPADPNEPEKWLSARELLRMATRGSAECLGRPDLGVLEEGRAADIACWRLDGVDRVGVHDPAIGLIMTGLSDRASLVVVNGQVLVENERPVLADLERIVANTTALIPKNL
In the case of B1, the “pKa of the nucleophile” value is reported as “approximately 8”.
